The inconclusive results got no clear call from the source; some entries with a clear call stand among them for comparison. For part of these data: No potency is given beside an inconclusive call; the fits are too rough. Calls of active or inactive are those of the source. Unless noted, calls follow the shape of the dose curve; as a rule, active = well fitted curve in either direction with a large enough effect (not every such curve was filed as active); inconclusive = small, poorly fitted or top-dose-only effect, or another doubt; inactive = flat fitted curve, though single readings scatter.
What was measured:
[1] = AP1 Signaling Pathway (AID 357); conditions: ME-180 AP-1-bla reporter, EGF-induced, beta-lactamase ratio, 5 h; at 7.69 µM (top of the series) unless noted;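 also: ME-180 reporter cells stimulated with EGF at its EC50 level; top concentration of the series differs between compounds; % is scaled to controls: 0 for no effect and ±100 for the full control effect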
Method in brief: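 In this screen, ME-180 cells in Opti-MEM with 0.5% dialyzed FBS received EC50 EGF and compound titrations for 5 h. AP-1 reporter beta-lactamase was detected via CCF4 ratio, giving AC50 for positive and negative modulators.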

[2] = NFAT Signaling Pathway (AID 444); conditions: Jurkat NFAT-bla M1, carbachol, beta-lactamase ratio, 5 h; at 7.69 µM (top of the series) unless noted;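 also: carbachol stimulus at about its EC50 of 1 µM final; % is scaled to controls: 0 for no effect and ±100 for the full control effect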
Method in brief: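 Read-out: CCF4 FRET ratio (460 nm/530 nm) after 1 h RT dye loading, used for %activity and AC50 from titration series. Cells: Jurkat NFAT-β-lactamase/M1 line, treated with compound plus 1 uM carbachol for 5 h, 37 °C.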

[3] = Stat Signaling Pathway (AID 446); conditions: ME-180 SIE beta-lactamase reporter, IL-6 stimulated, 5 h; at 7.69 µM (top of the series) unless noted;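 also: ME-180 cervical cancer cells given 40 pM IL-6 alongside compound; SIE-controlled beta-lactamase reporter measured as 460/530 nm FRET emission ratio; top concentration of the series differs between compounds; % is scaled to controls: 0 for no effect and ±100 for the full control effect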
Method in brief: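 Compound effects on IL-6-induced STAT reporter activity were measured in ME-180 cells. After overnight culture, cells were co-treated with 40 pM IL-6 for 5 hrs before beta-lactamase substrate loading at room temperature.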

[4] = target: Cytochrome P450 3A4 (Homo sapiens) (UniProt P08684); experiment: qHTS Assay for Activators of Cytochrome P450 3A4 (AID 885; active = well fitted curve in the direction sought with a large enough effect; inconclusive = small, poorly fitted or top-dose-only effect, or another doubt; inactive = no such curve, though single readings can be large; an effect the other way counts as inactive or inconclusive; also: nearly all actives have a fitted effect of over 65% in size; also: potency is read from the fitted curve at half-maximal effect)
UniProt P08684, sequence (P08684 whole entry, looked up): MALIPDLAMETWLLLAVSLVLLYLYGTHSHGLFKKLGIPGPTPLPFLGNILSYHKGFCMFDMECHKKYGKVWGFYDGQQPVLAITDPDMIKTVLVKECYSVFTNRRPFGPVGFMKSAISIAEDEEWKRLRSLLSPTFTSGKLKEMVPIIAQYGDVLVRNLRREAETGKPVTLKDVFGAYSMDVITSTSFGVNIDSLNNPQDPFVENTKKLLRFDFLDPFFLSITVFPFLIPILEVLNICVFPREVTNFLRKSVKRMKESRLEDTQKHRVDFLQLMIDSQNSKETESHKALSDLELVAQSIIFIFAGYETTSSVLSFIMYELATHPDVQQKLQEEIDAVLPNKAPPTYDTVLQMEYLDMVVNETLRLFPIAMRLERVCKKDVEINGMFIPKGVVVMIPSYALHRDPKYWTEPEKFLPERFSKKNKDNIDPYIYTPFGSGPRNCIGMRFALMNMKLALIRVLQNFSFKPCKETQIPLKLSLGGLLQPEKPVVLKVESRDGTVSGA
Method in brief: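 CYP3A4 activity: Luciferin-PPXE O-dealkylation, 25uM substrate, 200mM KPO4, RT throughout. Read-out is luciferase luminescence; higher values reflect activation.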

[5] = qHTS Assay for Identification of Small Molecule Agonists for Hypoxia Response Element Signaling Pathway (AID 914; active = well fitted activation curve with a large enough effect in the signal ratio, with a control signal flat, not every such curve was filed as active; inconclusive = small, poorly fitted or top-dose-only effect, or effect the other way, or a change in a side signal; the % refers to the signal ratio; also: potency is read from the fitted curve at half-maximal effect); conditions: ME-180 (cervical carcinoma) HRE-bla reporter, beta-lactamase ratio, CoCl2, 17 h; activation: active compounds read high
Method in brief: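 qHTS titration; ME-180 HRE-bla cells; EC50 CoCl2 co-treatment, 17 h at 37 degrees Celsius; CCF4 dye, ex 405nm, em 460nm and 530nm; %Activity from ratio; AC50.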

[6] = qHTS Assay for Lipid Storage Modulators (AID 1519; calls by dose curve; also: % is scaled to controls: 0 for no effect and ±100 for the full control effect); conditions: Drosophila S3 cells, BODIPY lipid droplet/cell ratio, laser cytometry, cells loaded with oleic acid; activity change, negative = inhibition: at 57.5 µM (top of the series) unless noted
Method in brief: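 Cells seeded at 5,000 per well were treated with compounds over a concentration series and loaded with oleic acid (400 uM, as added). Lipid droplet fluorescence (488 nm excitation, 500-530 nm channel) was read by laser-scanning cytometry and normalized to 20 uM Triacsin C.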

[7] = Primary qHTS for small molecule stabilizers of the endoplasmic reticulum resident proteome: Secreted ER Calcium Modulated Protein (SERCaMP) assay (AID 1508630; active = well fitted curve in the direction sought with a large enough effect; inconclusive = small, poorly fitted or top-dose-only effect, or another doubt; inactive = no such curve, though single readings can be large; an effect the other way counts as inactive or inconclusive; also: potency is read from the fitted curve at half-maximal effect); conditions: SH-SY5Y GLuc-SERCaMP (Gaussia luciferase released on ER calcium loss) secretion, thapsigargin, luminescence; activity change, negative = inhibition: at 38.4 µM (top of the series) unless noted
Method in brief: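 The SH-SY5Y reporter protocol was run at 3 concentrations up to 38.3 uM (primary) or 11 concentrations (follow-up): 16 h compound, 100 nM thapsigargin for 4 h, then extracellular luciferase luminescence.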

[8] = target: 3',5'-cyclic-AMP phosphodiesterase 4B (Homo sapiens) (UniProt Q07343); experiment: qHTS Assay for Inhibitors of PDE-IV (AID 607; active = well fitted activation curve with a large enough effect in the main read-out, with a control signal flat, not every such curve was filed as active; inconclusive = small, poorly fitted or top-dose-only effect, or effect the other way, or a change in a side signal; also: potency is read from the fitted curve at half-maximal effect; as to activation (PDE inhibition): % of control where 0% means no effect); conditions: HEK293 ACTOne CNG channel cells, membrane potential fluorescence; activation (PDE inhibition): at 22.9 µM (top of the series)
UniProt Q07343, sequence (Q07343 whole entry, looked up): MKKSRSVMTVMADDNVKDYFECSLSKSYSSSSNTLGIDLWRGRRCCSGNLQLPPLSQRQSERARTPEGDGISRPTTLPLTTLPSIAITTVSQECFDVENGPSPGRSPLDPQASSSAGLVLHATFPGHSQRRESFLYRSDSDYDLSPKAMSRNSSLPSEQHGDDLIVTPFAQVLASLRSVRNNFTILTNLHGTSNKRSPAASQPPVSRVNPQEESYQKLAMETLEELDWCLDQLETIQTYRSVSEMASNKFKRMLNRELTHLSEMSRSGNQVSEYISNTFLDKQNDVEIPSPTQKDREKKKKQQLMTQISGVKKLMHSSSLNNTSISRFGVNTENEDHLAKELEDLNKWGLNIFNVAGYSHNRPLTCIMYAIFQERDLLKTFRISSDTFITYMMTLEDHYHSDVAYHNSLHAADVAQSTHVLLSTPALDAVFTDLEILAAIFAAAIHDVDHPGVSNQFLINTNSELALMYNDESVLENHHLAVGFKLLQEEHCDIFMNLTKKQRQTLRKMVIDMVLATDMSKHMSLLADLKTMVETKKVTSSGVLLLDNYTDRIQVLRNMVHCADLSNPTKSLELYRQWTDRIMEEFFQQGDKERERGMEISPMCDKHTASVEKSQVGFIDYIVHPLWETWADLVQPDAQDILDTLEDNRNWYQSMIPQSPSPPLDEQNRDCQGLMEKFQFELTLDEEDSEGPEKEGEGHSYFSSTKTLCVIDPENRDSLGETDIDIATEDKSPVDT
Method in brief: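 ACTOne HEK293 cells carry a modified cAMP-gated CNG channel and express endogenous PDE4; plated 1000 cells/well, compounds up to 22.9 uM final. Membrane-potential dye fluorescence (ex 535/em 590) was read; parental cells received 10 uM forskolin + 100 uM RO 20-1724.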

[9] = target: Ubiquitin carboxyl-terminal hydrolase 1 (Homo sapiens) (UniProt O94782); experiment: Inhibitors of USP1/UAF1: Pilot qHTS (AID 504865; active = well fitted curve in the direction sought with a large enough effect; inconclusive = small, poorly fitted or top-dose-only effect, or another doubt; inactive = no such curve, though single readings can be large; an effect the other way counts as inactive or inconclusive;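 also: rhodamine fluorescence freed from ubiquitin-rhodamine substrate followed over time; potency is read from the fitted curve at half-maximal effect; nearly all actives have a fitted effect of over 35% in size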)
UniProt O94782, sequence (O94782 whole entry, looked up): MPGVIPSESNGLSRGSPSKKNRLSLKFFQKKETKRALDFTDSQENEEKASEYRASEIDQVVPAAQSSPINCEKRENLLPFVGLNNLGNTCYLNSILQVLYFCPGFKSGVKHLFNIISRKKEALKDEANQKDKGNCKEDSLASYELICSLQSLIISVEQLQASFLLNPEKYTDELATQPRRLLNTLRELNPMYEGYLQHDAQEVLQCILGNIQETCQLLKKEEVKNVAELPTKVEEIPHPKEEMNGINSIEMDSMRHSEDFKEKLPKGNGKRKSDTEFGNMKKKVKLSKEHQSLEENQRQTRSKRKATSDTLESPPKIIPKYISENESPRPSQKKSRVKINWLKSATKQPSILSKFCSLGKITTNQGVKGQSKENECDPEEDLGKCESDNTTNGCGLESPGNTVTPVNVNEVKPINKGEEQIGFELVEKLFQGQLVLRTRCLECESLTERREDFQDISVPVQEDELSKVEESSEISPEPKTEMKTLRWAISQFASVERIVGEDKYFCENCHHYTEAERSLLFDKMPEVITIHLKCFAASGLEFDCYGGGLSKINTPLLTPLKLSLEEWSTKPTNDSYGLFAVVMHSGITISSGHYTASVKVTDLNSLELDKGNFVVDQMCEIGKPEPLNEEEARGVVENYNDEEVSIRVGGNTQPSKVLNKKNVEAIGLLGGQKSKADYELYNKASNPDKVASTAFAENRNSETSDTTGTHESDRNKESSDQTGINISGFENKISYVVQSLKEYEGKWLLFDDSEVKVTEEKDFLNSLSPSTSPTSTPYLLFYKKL
Method in brief: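 Enzyme-free wells gave the negative control, while test wells held 1nM USP1/UAF1 preincubated with compound for 15 min at room temperature. Ub-Rho at 150nM final started the reaction, and fluorescence at 480/540 nm was recorded kinetically.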

[10] = target: Mitogen-activated protein kinase 10 (Mus musculus) (UniProt Q61831); experiment: JNK3 AlphaScreen Assay (AID 530); conditions: JNK3 lysate, c-Jun phosphorylation; activity change, negative = inhibition: at 57.1 µM (top of the series)
Method in brief: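 Kinase buffer: 20 mM Tris-HCl pH 7.6, 10 mM MgCl2, 1 mM DTT, 0.1 mM Na3VO4, 0.01% Tween-20; ATP 10 uM. Substrate biotin-GST-cJun(1-79), enzyme from activated HepG2 lysates. Detection by Ser73 phospho-antibody AlphaScreen.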

[11] = target: Dual specificity protein kinase CLK4 (Homo sapiens) (UniProt Q9HAZ1); experiment: qHTS Assay for Inhibitors of CDC-like Kinase 4 (ADP-Glo Assay) (AID 1771; active = well fitted curve in the direction sought with a large enough effect; inconclusive = small, poorly fitted or top-dose-only effect, or another doubt; inactive = no such curve, though single readings can be large; an effect the other way counts as inactive or inconclusive; also: % is scaled to controls: 0 for no effect and ±100 for the full control effect; nearly all actives have a fitted effect of over 70% in size)
UniProt Q9HAZ1, sequence (Q9HAZ1 whole entry, looked up): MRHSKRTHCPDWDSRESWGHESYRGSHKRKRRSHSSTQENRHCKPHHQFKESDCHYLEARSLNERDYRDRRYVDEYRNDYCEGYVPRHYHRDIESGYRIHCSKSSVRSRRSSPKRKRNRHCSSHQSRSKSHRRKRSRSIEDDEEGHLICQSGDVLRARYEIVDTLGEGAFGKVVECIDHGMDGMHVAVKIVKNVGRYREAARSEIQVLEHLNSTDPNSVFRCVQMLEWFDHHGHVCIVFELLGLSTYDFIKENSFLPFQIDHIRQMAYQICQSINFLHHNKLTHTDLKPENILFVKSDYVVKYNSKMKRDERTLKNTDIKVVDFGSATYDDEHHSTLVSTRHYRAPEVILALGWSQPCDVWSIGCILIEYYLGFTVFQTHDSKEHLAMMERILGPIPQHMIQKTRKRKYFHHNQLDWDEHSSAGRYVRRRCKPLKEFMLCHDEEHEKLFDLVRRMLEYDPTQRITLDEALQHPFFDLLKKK
Method in brief: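 25 nM Clk4, 100 uM RS peptide, 1 uM ATP (final); 2 mM MgCl2, 0.5 mM EGTA, 2.5 mM DTT, 0.01% Triton X-100; 1 hr RT. ADP-Glo readout: ATP depletion 45 min, conversion/luciferase 30 min, luminescence.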
Tags tell the direction and shape of the fitted curve or compound fluorescence and quenching.

SMILES	activity change, negative = inhibition [1]	activity change, negative = inhibition [2]	activity, negative = inhibition [3]	Potency [4]	Potency [5]	activity change, negative = inhibition [6]	Potency [7]	Potency [8]	Potency [9]	Potency [10]	Potency [6]	Potency [11]
Cn1c(=O)c(-c2cc(F)cc(F)c2)nc2cnc(N3CCNCC3)nc21	inconclusive: 114% [activator]	inconclusive: 156% [activator]	inconclusive: 176% [activator]	inactive	active: 3.16 µM	inconclusive: 7.42%	inactive	–	–	–	–	–
Cc1cccc(CNc2nc(-c3cccnc3)nc3ccccc23)c1	inconclusive: -45.1% [inhibitor]	inconclusive: -49.3% [inhibitor]	inconclusive: -41.4% [inhibitor]	–	inconclusive [inhibitor, single point]	inconclusive: 11.5%	inconclusive [inhibitor, single point]	inconclusive [activator, partial curve]	inconclusive [inhibitor, full curve]	–	–	–
CN1CCN(c2ncc3nc(-c4ccc(Cl)cc4)c(=O)n(C4CC4)c3n2)CC1	inconclusive: 101% [activator]	inconclusive: 135% [activator]	inconclusive: 130% [activator]	inconclusive [activator, partial curve]	active: 3.16 µM	inconclusive: 6.73%	inconclusive [inhibitor, partial curve, poor fit]	–	–	inactive	–	–
CN1CCN(c2ncc3nc(-c4ccccc4)c(=O)n(Cc4ccc(F)cc4)c3n2)CC1	inconclusive: 100% [activator]	inconclusive: 149% [activator]	inconclusive: 141% [activator]	–	–	inconclusive: -9.56%	inconclusive [inhibitor, partial curve, poor fit]	–	–	–	–	–
CN1CCN(c2ncc3nc(-c4cccc(C#N)c4)c(=O)n(C[C@H]4CCCO4)c3n2)CC1	–	–	–	–	–	–	inconclusive [inhibitor, partial curve, poor fit]	inactive	–	inactive	inactive	inactive

— PubChem BioAssay (NCATS)
